{"source": "PubChem BioAssay AID624417", "about": "(National Center for Advancing Translational Sciences (NCATS), 2012)", "note": "Values joined by “and” are separate entries in the source; they are usually repeats but may differ in a detail not shown here. Equal values may be shown once. Among all 410,000 compounds or so, about 6,400 (1.6%) were called active. Inconclusive means that the source gave no clear call. Such entries were picked first, then a sample of the others. Calls come from the whole dose curve; as a rule, active = well fitted inhibition curve with a large enough effect; inconclusive = small, poorly fitted or top-dose-only effect; inactive = no such curve, though single readings can be large or run the other way. A potency beside an inconclusive call is a rough fit, not a confirmed value. % is set by controls: 0 for no effect and ±100 for the full control effect; potency is the fitted concentration of half-maximal effect; tags give direction and shape of the fitted curve."}
{"target": "Glucagon-like peptide 1 receptor (Homo sapiens) (UniProt P43220)", "sequence (P43220 whole entry, looked up)": "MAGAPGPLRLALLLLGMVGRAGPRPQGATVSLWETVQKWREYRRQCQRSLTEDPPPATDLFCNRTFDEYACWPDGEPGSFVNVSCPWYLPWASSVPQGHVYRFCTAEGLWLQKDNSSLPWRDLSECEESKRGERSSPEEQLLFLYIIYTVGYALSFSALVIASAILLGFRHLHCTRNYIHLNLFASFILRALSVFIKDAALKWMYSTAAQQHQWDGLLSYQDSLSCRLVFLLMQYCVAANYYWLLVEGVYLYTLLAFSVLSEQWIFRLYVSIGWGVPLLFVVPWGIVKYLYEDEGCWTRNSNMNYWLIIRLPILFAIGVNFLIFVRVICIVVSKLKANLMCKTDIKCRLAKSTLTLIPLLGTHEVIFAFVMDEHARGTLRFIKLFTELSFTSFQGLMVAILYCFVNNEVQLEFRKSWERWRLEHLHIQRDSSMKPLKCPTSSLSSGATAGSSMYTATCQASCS", "test": "qHTS of GLP-1 Receptor Inverse Agonists (Inhibition Mode); note: nearly all actives have a fitted effect of over 55% in size", "conditions": "HEK293 GLP-1R CRE-luciferase, luminescence, 24 h, GLP-1R form is constitutively active; activity change, negative = inhibition: at 38.3 µM (top of the series) unless noted", "in_short": "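Seeding at 200 cells/uL, 12 h culture, 24 hr compound treatment, then luciferase reagent and a luminescence read; cells are HEK293 stably expressing a constitutively active GLP-1R plus cAMP-responsive luciferase.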"}
{"smiles": "Cc1cc(Cl)ccc1OCC(=O)N1CCC(c2nc3ccccc3s2)CC1", "Potency": "inconclusive: 28.2 µM [inhibitor, single point]"}
{"smiles": "COCCCN=Cc1c(C)[nH]n(-c2ccc(Br)c(C)c2)c1=O", "Potency": "inconclusive: 10 µM [inhibitor, single point]"}
{"smiles": "CCCCCOc1ccc(CSC(=N)N)cc1[N+](=O)[O-]", "Potency": "inconclusive: 1.12 µM [inhibitor, full curve, poor fit]"}
{"smiles": "COc1ccc(-c2sc3ccccc3c2-c2ccc(OC)cc2F)cc1", "Potency": "inconclusive: 11.2 µM [inhibitor, single point]"}
{"smiles": "O=C(NCCC1CCCC1)c1cccs1", "activity change, negative = inhibition": "inactive: -29.1%"}
{"smiles": "COc1ccccc1N1CCN(C2CCCN(Cc3ccc(Cl)cc3)C2)CC1", "note": "(centres undefined)", "Potency": "inconclusive: 28.2 µM [inhibitor, single point]"}
{"smiles": "Cc1ccc2cccc(NC(=O)C(C)Oc3ccc(Cl)cc3Cl)c2n1", "note": "(centres undefined)", "activity change, negative = inhibition": "inactive: 10.9%"}
{"smiles": "COc1cccc(CNS(=O)(=O)c2ccc3c(c2)C(C(C)C)C(=O)N3)c1", "note": "(centres undefined)", "activity change, negative = inhibition": "inactive: -13%"}
{"smiles": "COc1ccccc1C(=O)Nc1c(C(=O)Nc2ccccc2F)oc2ccccc12", "Potency": "inconclusive: 7.94 µM [inhibitor, partial curve, poor fit]"}
{"smiles": "CCCCc1c(-c2ccccc2OC)ncn1CCc1cccc(F)c1", "Potency": "inconclusive: 28.2 µM [inhibitor, single point]"}
{"smiles": "CC(C)N1CCC(C)(C(=O)Nc2ccc(Cl)c(Cl)c2)C1", "note": "(centres undefined)", "Potency": "inconclusive: 31.6 µM [inhibitor, single point]"}
{"smiles": "O=C1Nc2cc(C(=O)NCCN3CCCCCC3)ccc2S/C1=C/c1ccccc1F", "Potency": "inconclusive: 8.91 µM [inhibitor, partial curve, poor fit]"}
{"smiles": "COc1cc(C2=NC(CO)(CO)CO2)cc(OC)c1OC", "Potency": "inconclusive: 31.6 µM [inhibitor, partial curve, poor fit]"}
{"smiles": "Cc1ccc2c(c1)COc1c3ccc(C(=O)NC(C)C)cc3nn1-2", "activity change, negative = inhibition": "inactive: -16.7%"}
{"smiles": "Cc1ccc2cc(C(c3nnnn3Cc3ccccc3)N3CCN(c4ccccc4)CC3)c(=O)[nH]c2c1", "note": "(centres undefined)", "Potency": "inconclusive: 10 µM [inhibitor, single point]"}
{"smiles": "CCCCC(=O)N1CCc2cc(OC)c(OC)cc2C1COc1ccc(OC)cc1", "note": "(centres undefined)", "activity change, negative = inhibition": "inactive: -14.1%"}
{"smiles": "O=C(Nc1nc2ccccc2s1)c1c(F)cccc1Cl", "activity change, negative = inhibition": "inactive: -24.3%"}
{"smiles": "COC(=O)c1ccccc1NC(=O)Cn1c(=O)cc(C)c2c(C)nn(C)c21", "activity change, negative = inhibition": "inactive: -5.02%"}
{"smiles": "Cc1ccc(C(C(=O)NC2CCCCC2)N(Cc2ccco2)C(=O)C2COc3ccccc3O2)o1", "note": "(centres undefined)", "Potency": "inconclusive: 12.6 µM [inhibitor, partial curve]"}
{"smiles": "Cc1ccccc1N1CCN(C(=O)C2CCCCC2)CC1", "Potency": "inconclusive: 10 µM [inhibitor, partial curve, poor fit]"}
{"smiles": "Fc1ccc(CSc2nncn2NCc2ccc3c(c2)OCO3)cc1", "Potency": "inconclusive: 28.2 µM [inhibitor, single point]"}
{"smiles": "Cc1ccc(C)c(Cn2c(C(=O)O)c(CNCc3cccs3)c3ccccc32)c1", "Potency": "inconclusive: 28.2 µM [inhibitor, single point]"}
{"smiles": "COc1ccccc1N(CC(=O)NCCSc1ccccn1)S(=O)(=O)c1ccccc1", "Potency": "inconclusive: 7.08 µM [inhibitor, partial curve, poor fit]"}
{"smiles": "CN1/C(=C\\C(=S)NC(=O)c2ccc([N+](=O)[O-])cc2)C(C)(C)c2ccccc21", "activity change, negative = inhibition": "inactive: -45.6%"}
{"smiles": "COc1ccc(-c2n[nH]c(C)c2-c2cscn2)c(O)c1", "activity change, negative = inhibition": "inactive: -11.6%"}
{"smiles": "CC1CCN(S(=O)(=O)c2ccc(NC(=O)CN3CCN(C)CC3)cc2)CC1", "Potency": "inconclusive: 10 µM [inhibitor, single point]"}
{"smiles": "OC(c1cccc(Cl)c1)c1nc(/C=C/c2ccc(C(F)(F)F)cc2)cs1", "note": "(centres undefined)", "Potency": "inconclusive: 28.2 µM [inhibitor, single point]"}
{"smiles": "COc1ccc(Cl)cc1NC(=O)Cn1c(=O)c(-c2ccccc2NC(C)=O)nc2ccccc21", "activity change, negative = inhibition": "inactive: -1.99%"}
{"smiles": "O=C(Nc1cc(Sc2ccccn2)cc([N+](=O)[O-])c1)c1ccc(Cl)cc1", "Potency": "inconclusive: 12.6 µM [inhibitor, single point]"}
{"smiles": "O=C(Nc1cccc(Cl)c1)N(CCCN1CCOCC1)Cc1ccccc1F", "Potency": "inconclusive: 10 µM [inhibitor, single point]"}
{"smiles": "COc1ccc(C(=O)CSc2nc(C(C)(C)C)nc3ccccc23)cc1", "Potency": "inconclusive: 11.2 µM [inhibitor, single point]"}
{"smiles": "CSc1cccc(NC(=S)N2CCC(c3ccccc3)C2)c1", "note": "(centres undefined)", "Potency": "inconclusive: 22.4 µM [inhibitor, partial curve, poor fit]"}
{"smiles": "CCCCn1nnnc1C(c1cc2ccccc2o1)N(CCC#N)Cc1ccccc1", "note": "(centres undefined)", "Potency": "inconclusive: 7.94 µM [inhibitor, partial curve, poor fit]"}
{"smiles": "Cc1ccc(NC(=O)CN2C(=O)NC(Cc3ccccc3)C2=O)cc1Cl", "note": "(centres undefined)", "Potency": "inconclusive: 10 µM [inhibitor, single point]"}
{"smiles": "CCCn1c(=O)c(C(=O)NNS(=O)(=O)c2ccc(Cl)cc2)c(O)c2ccccc21", "Potency": "inconclusive: 28.2 µM [inhibitor, single point]"}
{"smiles": "COc1ccc(C2=NS(=O)(=O)N(C)C(C(=O)Nc3ccc(C)cc3)=C2)cc1", "Potency": "inconclusive: 12.6 µM [inhibitor, partial curve, poor fit]"}
{"smiles": "CCOC(=O)C1(Cc2cccc(OC)c2)CCN(CC=C(C)C)CC1", "Potency": "inconclusive: 3.98 µM [inhibitor, partial curve, poor fit]"}
{"smiles": "CC[n+]1cc(C)ccc1/C=C/c1ccc(N(C)C)cc1", "Potency": "inconclusive: 1 µM [inhibitor, full curve, poor fit]"}
{"smiles": "OCC1(CCCc2ccccc2)CCN(C2CCSCC2)CC1", "Potency": "inconclusive: 12.6 µM [inhibitor, partial curve, poor fit]"}
{"smiles": "COc1ccc2nc(-c3ccccc3)cc(C(=O)OCC(=O)N3CC(C)OC(C)C3)c2c1", "note": "(centres undefined)", "Potency": "inconclusive: 31.6 µM [inhibitor, partial curve, poor fit]"}
{"smiles": "Cc1nn(-c2ccccc2)c2c1C(c1ccc(Br)s1)C(C#N)=C(N)O2", "note": "(centres undefined)", "Potency": "inconclusive: 28.2 µM [inhibitor, single point]"}
{"smiles": "COc1ccc(C2C=C(c3ccccc3)Nc3nc(NC(=O)/C=C/c4ccccc4Cl)nn32)cc1", "note": "(centres undefined)", "activity change, negative = inhibition": "inactive: 20%"}
{"smiles": "Cc1cccc(CCN(C(=O)c2csnn2)C(C(=O)NC2CCCC2)c2ccco2)c1", "note": "(centres undefined)", "Potency": "inconclusive: 22.4 µM [inhibitor, partial curve, poor fit]"}
{"smiles": "NC(=O)Cc1ccc(C(=O)c2ccc(Cl)cc2Cl)s1", "Potency": "inconclusive: 12.6 µM [inhibitor, partial curve, poor fit]"}
{"smiles": "CCN(CC)C(=O)CSc1nc2c(sc(=S)n2-c2ccccc2)c(=O)n1-c1ccc(OC)c(OC)c1", "Potency": "inconclusive: 28.2 µM [inhibitor, single point]"}
{"smiles": "COCCSc1ccccc1C(=O)Nc1ccc(Cl)cc1", "Potency": "inconclusive: 28.2 µM [inhibitor, single point]"}
{"smiles": "CC(C)=CCc1c(O)ccc(C2COc3c(CC=C(C)C)c(O)cc(O)c3C2=O)c1O", "note": "(centres undefined)", "Potency": "inconclusive: 31.6 µM [inhibitor, partial curve, poor fit]"}
{"smiles": "Cc1nn(CC(=O)NCCc2ccccc2)c(=O)c2nn(-c3ccccc3)c(C)c12", "activity change, negative = inhibition": "inactive: -4.42%"}
{"smiles": "O=C(Cc1coc2ccc3ccccc3c12)Nc1nnc(C2CC2)s1", "Potency": "inconclusive: 1.26 µM [inhibitor, partial curve, poor fit]"}
{"smiles": "OC(c1ccc(Cl)c(Cl)c1)c1ncc(-c2ccccc2C(F)(F)F)[nH]1", "note": "(centres undefined)", "Potency": "inconclusive: 15.8 µM [inhibitor, single point]"}
{"smiles": "O=C(COC(=O)c1cccnc1Nc1cccc(C(F)(F)F)c1)NCCN1C(=O)CSC1=O", "Potency": "inconclusive: 11.2 µM [inhibitor, partial curve, poor fit]"}
{"smiles": "CC1=C(C(N)=O)C(c2cccc(Br)c2)n2nc(SCc3ccccc3Cl)nc2N1", "note": "(centres undefined)", "activity change, negative = inhibition": "inactive: 3.57%"}
{"smiles": "CC(=O)NCCNC(=O)c1ccc(Sc2ccccc2)c([N+](=O)[O-])c1", "activity change, negative = inhibition": "inactive: 34.3%"}
{"smiles": "O=C(Nc1ccccc1Oc1ccccc1)C1=COCCO1", "Potency": "inconclusive: 28.2 µM [inhibitor, single point]"}
{"smiles": "CCc1nc2ccc(C(=O)N3CCN(c4cc(C)ccc4C)CC3)cc2nc1CC", "Potency": "inconclusive: 28.2 µM [inhibitor, single point] and inconclusive: 12.6 µM [inhibitor, single point]"}
{"smiles": "CN(c1ccc(C(=O)NCCSC(C)(C)C)cc1)S(=O)(=O)c1ccccc1", "Potency": "inconclusive: 2 µM [inhibitor, partial curve, poor fit]"}
{"smiles": "O=C(/C=C/c1cccnc1)c1ccc(F)c(F)c1", "Potency": "inconclusive: 0.501 µM [inhibitor, full curve, poor fit]"}
{"smiles": "Fc1ccc(CSc2nncn3c2cc2occc23)c(Cl)c1", "activity change, negative = inhibition": "inactive: -28.9%"}
{"smiles": "CCOc1ccc(CCNC(=O)c2cc3sccc3n2CC)cc1OCC", "Potency": "inconclusive: 7.94 µM [inhibitor, partial curve, poor fit]"}
{"smiles": "CCOC(=O)N(C)c1c(CC)nc2c(OCc3ccc(Cl)cc3Cl)cccn12", "Potency": "inconclusive: 28.2 µM [inhibitor, single point]"}
{"smiles": "CC(CCc1ccccc1)NC(=O)c1cnc(Cl)c(Cl)c1", "note": "(centres undefined)", "Potency": "inconclusive: 28.2 µM [inhibitor, single point]"}
{"smiles": "Cc1ccc(NC(=O)CN2C(=O)COc3ccc(S(=O)(=O)N4CCOCC4)cc32)cc1N(C)C", "Potency": "inconclusive: 1 µM [inhibitor, full curve]"}
{"smiles": "COc1ccccc1N1CCN(CCCNC(=O)c2nnc(Cc3ccc(F)cc3Cl)o2)CC1", "Potency": "inconclusive: 11.2 µM [inhibitor, partial curve, poor fit]"}
{"smiles": "COc1ccc(OC)c(Nc2cc(C(=O)NCCCN3CCOCC3)c3ccccc3n2)c1", "Potency": "inconclusive: 14.1 µM [inhibitor, single point]"}
